Source: the supplement of paper PMC3334620
Whole data set: some 33,000 sequences, median “E-score (-0.5 to 0.5)” near -0.036, cut for the highest 2% near 0.37. Some of the results follow.

These sequences were tested against T1, Yer064c (UniProt P40041) (assay: PBM E-score (8-mer binding enrichment) (E-score (-0.5 to 0.5)); higher = stronger / more preferred TF binding; most listed sequences are background and not binding sites). Conditions: protein concentration: 200 nM; construct: GST-full length.
T1 sequence: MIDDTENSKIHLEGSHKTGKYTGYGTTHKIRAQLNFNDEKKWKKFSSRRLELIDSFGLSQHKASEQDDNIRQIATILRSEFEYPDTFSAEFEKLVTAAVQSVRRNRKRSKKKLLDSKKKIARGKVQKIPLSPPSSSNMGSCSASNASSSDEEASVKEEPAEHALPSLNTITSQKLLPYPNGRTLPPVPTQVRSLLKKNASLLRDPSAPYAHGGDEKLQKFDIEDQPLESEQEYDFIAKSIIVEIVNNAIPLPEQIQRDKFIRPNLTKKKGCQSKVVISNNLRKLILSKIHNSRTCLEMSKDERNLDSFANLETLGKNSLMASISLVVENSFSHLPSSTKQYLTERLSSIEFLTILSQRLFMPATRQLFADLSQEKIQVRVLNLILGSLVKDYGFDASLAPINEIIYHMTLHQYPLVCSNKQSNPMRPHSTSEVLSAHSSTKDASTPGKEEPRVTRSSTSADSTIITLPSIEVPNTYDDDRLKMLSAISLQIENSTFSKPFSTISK
How it was run: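 For each ungapped eight-base word taken together with its reverse complement, the Universal PBM Analysis Suite assigned an E-score. Binding data came from GST-tagged yeast transcription factors, applied at about 100-200 nM, on universal all-10-mer Agilent arrays made double-stranded by primer extension. Fluorescent anti-GST marked bound protein, and scans were normalised with masliner.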

Sequence	PBM E-score
ACTGGCCC	-0.0743
CCAGGGGG	-0.216
CCGGGGTA	-0.16
AACAGGGC	-0.141
ACCGCCCA	-0.117
AAGAGACA	0.128
GCGTCTCA	-0.16
CCACGGCC	-0.131
AACCAAAG	-0.00439
CTCAAATC	0.158
AATCCGCG	-0.104
ATGGCGCA	-0.153
CGATCGAA	0.00969
ACTATTTA	0.173
AGCCGGGG	-0.156
CCAGTACC	-0.159
GAGTAGTA	0.0874
CCTACCCG	-0.115
CACATAGC	-0.00061
AGCTATGC	-0.125
CAATGGCA	-0.053
CTACTTAC	-0.0538

Sequence	PBM E-score
CATCTGAC	0.222
AACTATCC	-0.235
GCCGAACC	-0.327
AACAATTA	0.0684
GGTGGGAC	-0.142
AATTCTGT	-0.137
ATTACACC	-0.00721
CTACGCAC	-0.047
CGTTACAC	0.165
GCGTTTCA	-0.149
ACTGAAAG	0.0799
GGTGTCCA	-0.00902
CCCTTGGA	-0.0274
CCAGCGTA	0.00471
AGATGCAC	-0.186
CAAAGTCA	0.399
CTTGCCGC	-0.264
CTATTCGA	0.0375
GAAGCTTC	-0.364
GGTTAGCA	0.025
GAATTCAA	0.0377
GGCATCCA	-0.182

Sequence	PBM E-score
CCGAGGTA	0.0799
AAAAATGC	-0.198
AAGCATTG	-0.159
GAACGGAC	-0.107
GTGGAGCA	-0.0738
AGGAGATC	-0.0771
AGCCTTAA	0.195
AAGGGTAC	-0.103
AACAAGTG	0.114
AATCTTCA	0.254
AGGAAGCC	-0.235
CGACCCAC	-0.0561
CAGCACTA	-0.0499
GCTCCGAA	-0.175
AGTATTCC	0.0206
GTGTTTGA	0.196
ACACTGAT	0.0338
TATTTGCA	0.0422
TGTCCACA	-0.162
AAGTATTG	0.00997
CCCAGTTC	0.00772
GGAGCCGA	-0.12

Sequence	PBM E-score
ACCAGGAC	0.0899
ACAAGAAA	0.102
AGAATGAG	0.22
AGGCGAGA	-0.152
CGTAGGAC	0.128
CCTTTCTA	-0.251
GACACAAA	0.0648
CTCGTGCA	0.17
CGGAATCC	-0.0704
CGCGATAC	-0.206
AATCCATA	0.0696
ACAACGGG	-0.00872
GCTTACTA	0.00123
AGAATCAC	0.374
CCACGTCG	-0.107
ACTCACCG	0.384
CGACTAGA	0.212
CCAGGCTA	-0.271
CCGACGGA	-0.131
GTAGGACA	-0.0812
